US20210009671A1 (AstraZeneca / MedImmune, published 2021)

Tests used:
[1] = target: Recombinant human NGF (Sigma) (human, UniProt P01138 fragment, limits assumed); assay: cell-based or functional assay
[2] = target: Recombinant mouse NGF (R&D Systems) (mouse, UniProt P01139 122-241); assay: cell-based or functional assay
UniProt P01139, sequence (P01139 122-241 limits assumed): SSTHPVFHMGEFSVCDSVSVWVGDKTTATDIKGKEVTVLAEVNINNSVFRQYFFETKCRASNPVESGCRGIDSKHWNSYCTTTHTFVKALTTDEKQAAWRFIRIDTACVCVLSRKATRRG

UniProt P01138, sequence (P01138 122-241 limits assumed): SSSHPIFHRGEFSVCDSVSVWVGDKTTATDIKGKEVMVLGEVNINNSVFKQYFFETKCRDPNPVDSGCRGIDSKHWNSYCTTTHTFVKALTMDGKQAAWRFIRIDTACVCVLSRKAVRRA

B1: TNFR2-Fc_VH#4 (Fc fusion)
chain: LPAQVAFTPYAPEPGSTCRLREYYDQTAQMCCSKCSPGQHAKVFCTKTSDTVCDSCEDSTYTQLWNWVPECLSCGSRCSSDQVETQACTREQNRICTCRPGWYCALSKQEGCRLCAPLRKCRPGFGVARPGTETSDVVCKPCAPGTFSNTTSSTDICRPHQICNVVAIPGNASMDAVCTSTSPTRSMAPGAVHLPQPVSTRSQHTQPTPEPSTAPSTSFLLPMGPSPPAEGSTGD[sequence of human IgG1 Fc not given]GGGGSGGGGSQVQLVQSGAEVKKPGSSVKVSCKASGGTFSTYGISWVRQAPGQGLEWMGGIIPIFDTGNSAQSFQGRVTITADESTSTAYMELSSLRSEDTAVYYCARSSRIYDLNPSLTAYYDMDVWGQGTMVTVSSGGGGSGGGGSGGGGSAQSVLTQPPSVSAAPGQKVTISCSGSSSNIGNNYVSWYQQLPGTAPKLLIYDNNKRPSGIPDRFSGSKSGTSATLGITGLQTGDEADYYCGTWDSSLSAWVFGGGTKLTVL
IC50 (read off the curve), human NGF-induced TF-1 proliferation [1]: ~0.5 nM | IC50 (read off the curve), murine NGF-induced TF-1 proliferation [2]: ~0.1 nM
